# Measured values taken from publication PMC12820563, “FoxP3 forms a head-to-head dimer in vivo and stabilizes its multimerization on adjacent microsatellites”.
# The list shows a part of the results.
# Molecular target: T1, MBP-FoxP1dN (Mus musculus, UniProt P58462 326-579)
# T1 sequence: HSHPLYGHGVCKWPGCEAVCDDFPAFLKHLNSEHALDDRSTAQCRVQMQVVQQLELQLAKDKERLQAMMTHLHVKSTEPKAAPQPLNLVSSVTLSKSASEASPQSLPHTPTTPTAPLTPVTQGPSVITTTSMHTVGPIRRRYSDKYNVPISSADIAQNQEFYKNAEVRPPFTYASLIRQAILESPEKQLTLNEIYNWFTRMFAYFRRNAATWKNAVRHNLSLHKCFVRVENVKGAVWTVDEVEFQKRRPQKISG
# Assay: PD-seq (MBP pull-down with sequencing); 20 mM Tris-HCl pH 7.5, 100 mM NaCl, 1.5 mM MgCl2, 0.4 uM protein, 0.1 uM dsDNA library, 30 min, room temperature, amylose pull-down; high values mean tight binding
# Settings: protein: recombinant; tags: His6-MBP; chain copies: 2; dsDNA, one strand shown
# In short: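 His6-MBP-tagged mouse FoxP3 or FoxP1 fragment lacking the N-terminus, expressed in E. coli, was mixed at 0.4 µM with 0.1 µM Klenow-filled double-stranded degenerate DNA library. Incubation was 30 min at room temperature in Tris pH 7.5 buffer with NaCl and MgCl2. Complexes were caught on amylose resin and washed three times; DNA was released with proteinase K, PCR-barcoded and Illumina-sequenced. Binding is reads-per-million enrichment, pull-down over input, with replicates pooled.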
row,Sequence,binding signal
1,GATGATTGTTCTCCCAGCTGATGAATTTCGAATGTCGAGTAAACAAATTTTCCTAATCTTTCTGTTCAAGCGCCATCTAC,0.898 RPM ratio (pull-down/input)
2,GATGATTGTTCTCCCAGCTGATGAATTGTAAAACTCGAGTAAACAAATTTTCCTAATCTTTCTGTTCAAGCGCCATCTAC,1.04 RPM ratio (pull-down/input)
3,GATGATTGTTCTCCCAGCTGATGAATTTAGTCCTTCGAGTAAACAAATTTTCCTAATCTTTCTGTTCAAGCGCCATCTAC,0.909 RPM ratio (pull-down/input)
4,GATGATTGTTCTCCCAGCTGATGAATTAACCGACTCGAGTAAACAAATTTTCCTAATCTTTCTGTTCAAGCGCCATCTAC,0.787 RPM ratio (pull-down/input)
5,GATGATTGTTCTCCCAGCTGATGAATTGAAATAATCGAGTAAACAAATTTTCCTAATCTTTCTGTTCAAGCGCCATCTAC,1.22 RPM ratio (pull-down/input)
6,GATGATTGTTCTCCCAGCTGATGAATTAGTCGCCTCGAGTAAACAAATTTTCCTAATCTTTCTGTTCAAGCGCCATCTAC,0.938 RPM ratio (pull-down/input)
7,GATGATTGTTCTCCCAGCTGATGAATTAGGTACTTCGAGTAAACAAATTTTCCTAATCTTTCTGTTCAAGCGCCATCTAC,0.934 RPM ratio (pull-down/input)
8,GATGATTGTTCTCCCAGCTGATGAATTACGCCCGTCGAGTAAACAAATTTTCCTAATCTTTCTGTTCAAGCGCCATCTAC,0.947 RPM ratio (pull-down/input)
9,GATGATTGTTCTCCCAGCTGATGAATTTACTTTCTCGAGTAAACAAATTTTCCTAATCTTTCTGTTCAAGCGCCATCTAC,1.32 RPM ratio (pull-down/input)
10,GATGATTGTTCTCCCAGCTGATGAATTTTCGCACTCGAGTAAACAAATTTTCCTAATCTTTCTGTTCAAGCGCCATCTAC,0.948 RPM ratio (pull-down/input)
11,GATGATTGTTCTCCCAGCTGATGAATTCCTACGATCGAGTAAACAAATTTTCCTAATCTTTCTGTTCAAGCGCCATCTAC,0.862 RPM ratio (pull-down/input)
12,GATGATTGTTCTCCCAGCTGATGAATTTCGGGCCTCGAGTAAACAAATTTTCCTAATCTTTCTGTTCAAGCGCCATCTAC,0.82 RPM ratio (pull-down/input)
13,GATGATTGTTCTCCCAGCTGATGAATTGTATGAATCGAGTAAACAAATTTTCCTAATCTTTCTGTTCAAGCGCCATCTAC,1.04 RPM ratio (pull-down/input)
14,GATGATTGTTCTCCCAGCTGATGAATTGGAGCTGTCGAGTAAACAAATTTTCCTAATCTTTCTGTTCAAGCGCCATCTAC,0.821 RPM ratio (pull-down/input)
15,GATGATTGTTCTCCCAGCTGATGAATTATCCGGCTCGAGTAAACAAATTTTCCTAATCTTTCTGTTCAAGCGCCATCTAC,0.805 RPM ratio (pull-down/input)
16,GATGATTGTTCTCCCAGCTGATGAATTGGATCTATCGAGTAAACAAATTTTCCTAATCTTTCTGTTCAAGCGCCATCTAC,0.875 RPM ratio (pull-down/input)
17,GATGATTGTTCTCCCAGCTGATGAATTGTGGCATTCGAGTAAACAAATTTTCCTAATCTTTCTGTTCAAGCGCCATCTAC,1.37 RPM ratio (pull-down/input)
18,GATGATTGTTCTCCCAGCTGATGAATTGCAGACTTCGAGTAAACAAATTTTCCTAATCTTTCTGTTCAAGCGCCATCTAC,1.11 RPM ratio (pull-down/input)
19,GATGATTGTTCTCCCAGCTGATGAATTTGAGTCTTCGAGTAAACAAATTTTCCTAATCTTTCTGTTCAAGCGCCATCTAC,0.878 RPM ratio (pull-down/input)
20,GATGATTGTTCTCCCAGCTGATGAATTGGGGCCTTCGAGTAAACAAATTTTCCTAATCTTTCTGTTCAAGCGCCATCTAC,0.842 RPM ratio (pull-down/input)
21,GATGATTGTTCTCCCAGCTGATGAATTTCGTTCGTCGAGTAAACAAATTTTCCTAATCTTTCTGTTCAAGCGCCATCTAC,0.832 RPM ratio (pull-down/input)

row,Sequence,binding signal
1,GATGATTGTTCTCCCAGCTGATGAATTCATGATCTCGAGTAAACAAATTTTCCTAATCTTTCTGTTCAAGCGCCATCTAC,0.863 RPM ratio (pull-down/input)
2,GATGATTGTTCTCCCAGCTGATGAATTCAAAGGATCGAGTAAACAAATTTTCCTAATCTTTCTGTTCAAGCGCCATCTAC,0.728 RPM ratio (pull-down/input)
3,GATGATTGTTCTCCCAGCTGATGAATTCAGAACTTCGAGTAAACAAATTTTCCTAATCTTTCTGTTCAAGCGCCATCTAC,0.799 RPM ratio (pull-down/input)
4,GATGATTGTTCTCCCAGCTGATGAATTGAAGATCTCGAGTAAACAAATTTTCCTAATCTTTCTGTTCAAGCGCCATCTAC,0.814 RPM ratio (pull-down/input)
5,GATGATTGTTCTCCCAGCTGATGAATTCTTCGACTCGAGTAAACAAATTTTCCTAATCTTTCTGTTCAAGCGCCATCTAC,0.817 RPM ratio (pull-down/input)
6,GATGATTGTTCTCCCAGCTGATGAATTTGGTACTTCGAGTAAACAAATTTTCCTAATCTTTCTGTTCAAGCGCCATCTAC,0.95 RPM ratio (pull-down/input)
7,GATGATTGTTCTCCCAGCTGATGAATTTATTTACTCGAGTAAACAAATTTTCCTAATCTTTCTGTTCAAGCGCCATCTAC,2.5 RPM ratio (pull-down/input)
8,GATGATTGTTCTCCCAGCTGATGAATTACTAGAGTCGAGTAAACAAATTTTCCTAATCTTTCTGTTCAAGCGCCATCTAC,1.07 RPM ratio (pull-down/input)
9,GATGATTGTTCTCCCAGCTGATGAATTGGCTTTGTCGAGTAAACAAATTTTCCTAATCTTTCTGTTCAAGCGCCATCTAC,0.881 RPM ratio (pull-down/input)
10,GATGATTGTTCTCCCAGCTGATGAATTCCAGCCGTCGAGTAAACAAATTTTCCTAATCTTTCTGTTCAAGCGCCATCTAC,0.696 RPM ratio (pull-down/input)
11,GATGATTGTTCTCCCAGCTGATGAATTGAAAAACTCGAGTAAACAAATTTTCCTAATCTTTCTGTTCAAGCGCCATCTAC,0.813 RPM ratio (pull-down/input)
12,GATGATTGTTCTCCCAGCTGATGAATTGAAAACGTCGAGTAAACAAATTTTCCTAATCTTTCTGTTCAAGCGCCATCTAC,1.02 RPM ratio (pull-down/input)
13,GATGATTGTTCTCCCAGCTGATGAATTTATCCTATCGAGTAAACAAATTTTCCTAATCTTTCTGTTCAAGCGCCATCTAC,1.07 RPM ratio (pull-down/input)
14,GATGATTGTTCTCCCAGCTGATGAATTAAAGTACTCGAGTAAACAAATTTTCCTAATCTTTCTGTTCAAGCGCCATCTAC,0.922 RPM ratio (pull-down/input)
15,GATGATTGTTCTCCCAGCTGATGAATTTAGGTACTCGAGTAAACAAATTTTCCTAATCTTTCTGTTCAAGCGCCATCTAC,0.947 RPM ratio (pull-down/input)
16,GATGATTGTTCTCCCAGCTGATGAATTCTCGGCGTCGAGTAAACAAATTTTCCTAATCTTTCTGTTCAAGCGCCATCTAC,0.815 RPM ratio (pull-down/input)
17,GATGATTGTTCTCCCAGCTGATGAATTGCCTCCTTCGAGTAAACAAATTTTCCTAATCTTTCTGTTCAAGCGCCATCTAC,1.02 RPM ratio (pull-down/input)
18,GATGATTGTTCTCCCAGCTGATGAATTCAGCGCATCGAGTAAACAAATTTTCCTAATCTTTCTGTTCAAGCGCCATCTAC,1.16 RPM ratio (pull-down/input)
19,GATGATTGTTCTCCCAGCTGATGAATTGATAGTGTCGAGTAAACAAATTTTCCTAATCTTTCTGTTCAAGCGCCATCTAC,1.07 RPM ratio (pull-down/input)
20,GATGATTGTTCTCCCAGCTGATGAATTTATGGTTTCGAGTAAACAAATTTTCCTAATCTTTCTGTTCAAGCGCCATCTAC,1.16 RPM ratio (pull-down/input)
21,GATGATTGTTCTCCCAGCTGATGAATTCAGGAATTCGAGTAAACAAATTTTCCTAATCTTTCTGTTCAAGCGCCATCTAC,0.864 RPM ratio (pull-down/input)

row,Sequence,binding signal
1,GATGATTGTTCTCCCAGCTGATGAATTCAAACGGTCGAGTAAACAAATTTTCCTAATCTTTCTGTTCAAGCGCCATCTAC,0.841 RPM ratio (pull-down/input)
2,GATGATTGTTCTCCCAGCTGATGAATTGAGGACTTCGAGTAAACAAATTTTCCTAATCTTTCTGTTCAAGCGCCATCTAC,0.783 RPM ratio (pull-down/input)
3,GATGATTGTTCTCCCAGCTGATGAATTGCACGAATCGAGTAAACAAATTTTCCTAATCTTTCTGTTCAAGCGCCATCTAC,1.22 RPM ratio (pull-down/input)
4,GATGATTGTTCTCCCAGCTGATGAATTAGTAGACTCGAGTAAACAAATTTTCCTAATCTTTCTGTTCAAGCGCCATCTAC,0.948 RPM ratio (pull-down/input)
5,GATGATTGTTCTCCCAGCTGATGAATTACCACATTCGAGTAAACAAATTTTCCTAATCTTTCTGTTCAAGCGCCATCTAC,1.15 RPM ratio (pull-down/input)
6,GATGATTGTTCTCCCAGCTGATGAATTCGAGGGATCGAGTAAACAAATTTTCCTAATCTTTCTGTTCAAGCGCCATCTAC,0.761 RPM ratio (pull-down/input)
7,GATGATTGTTCTCCCAGCTGATGAATTTGCGCAATCGAGTAAACAAATTTTCCTAATCTTTCTGTTCAAGCGCCATCTAC,1.25 RPM ratio (pull-down/input)
8,GATGATTGTTCTCCCAGCTGATGAATTATGACCATCGAGTAAACAAATTTTCCTAATCTTTCTGTTCAAGCGCCATCTAC,1.04 RPM ratio (pull-down/input)
9,GATGATTGTTCTCCCAGCTGATGAATTCTCTTAATCGAGTAAACAAATTTTCCTAATCTTTCTGTTCAAGCGCCATCTAC,0.948 RPM ratio (pull-down/input)
10,GATGATTGTTCTCCCAGCTGATGAATTTTCATAGTCGAGTAAACAAATTTTCCTAATCTTTCTGTTCAAGCGCCATCTAC,1.04 RPM ratio (pull-down/input)
11,GATGATTGTTCTCCCAGCTGATGAATTCGTGTATTCGAGTAAACAAATTTTCCTAATCTTTCTGTTCAAGCGCCATCTAC,1.35 RPM ratio (pull-down/input)
12,GATGATTGTTCTCCCAGCTGATGAATTCACACATTCGAGTAAACAAATTTTCCTAATCTTTCTGTTCAAGCGCCATCTAC,1.03 RPM ratio (pull-down/input)
13,GATGATTGTTCTCCCAGCTGATGAATTATTTCTCTCGAGTAAACAAATTTTCCTAATCTTTCTGTTCAAGCGCCATCTAC,1.08 RPM ratio (pull-down/input)
14,GATGATTGTTCTCCCAGCTGATGAATTATAGATTTCGAGTAAACAAATTTTCCTAATCTTTCTGTTCAAGCGCCATCTAC,0.919 RPM ratio (pull-down/input)
15,GATGATTGTTCTCCCAGCTGATGAATTACCATGATCGAGTAAACAAATTTTCCTAATCTTTCTGTTCAAGCGCCATCTAC,1.03 RPM ratio (pull-down/input)
16,GATGATTGTTCTCCCAGCTGATGAATTTTTTGCGTCGAGTAAACAAATTTTCCTAATCTTTCTGTTCAAGCGCCATCTAC,1.1 RPM ratio (pull-down/input)
17,GATGATTGTTCTCCCAGCTGATGAATTCCCTACATCGAGTAAACAAATTTTCCTAATCTTTCTGTTCAAGCGCCATCTAC,0.997 RPM ratio (pull-down/input)
18,GATGATTGTTCTCCCAGCTGATGAATTATGGCGCTCGAGTAAACAAATTTTCCTAATCTTTCTGTTCAAGCGCCATCTAC,1.02 RPM ratio (pull-down/input)
19,GATGATTGTTCTCCCAGCTGATGAATTGATAGCATCGAGTAAACAAATTTTCCTAATCTTTCTGTTCAAGCGCCATCTAC,1.3 RPM ratio (pull-down/input)
20,GATGATTGTTCTCCCAGCTGATGAATTACTTCTGTCGAGTAAACAAATTTTCCTAATCTTTCTGTTCAAGCGCCATCTAC,1.05 RPM ratio (pull-down/input)
21,GATGATTGTTCTCCCAGCTGATGAATTCCTAGCCTCGAGTAAACAAATTTTCCTAATCTTTCTGTTCAAGCGCCATCTAC,0.812 RPM ratio (pull-down/input)
